# Out of some 420,000 compounds screened, about 50,000 (12%) were called active. Inconclusive means that the source gave no clear call. Such entries were picked first, then a sample of the others. Calls follow the shape of the dose curve; as a rule, active = well fitted inhibition curve with a large enough effect; inconclusive = small, poorly fitted or top-dose-only effect; inactive = flat fitted curve, though single readings scatter. Potencies of inconclusive entries are left out as doubtful fits.
# Assay: qHTS for Inhibitors of human tyrosyl-DNA phosphodiesterase 1 (TDP1): qHTS in cells in presence of CPT; also: nearly all actives have a fitted effect of over 55% in size
# Details: chicken DT40 Tdp1-/-;hTDP1 cells + 20 nM CPT, ATP luminescence, 48 h; activity change, negative = growth inhibition: at 46.2 µM (top of the series)
# How it was run: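 Cell growth measured by CellTiter-Glo luminescence after a minimum 48 h, 37 C compound exposure with 20 nM CPT in Tdp1-knockout DT40 cells stably expressing hTDP1, seeded 400/well; qHTS titration format.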
# % is scaled to controls: 0 for no effect and ±100 for the full control effect; potency is read from the fitted curve at half-maximal effect; tags tell the direction and shape of the fitted curve.
Compound,Potency,"activity change, negative = growth inhibition"
CCN(C1CCCCC1)S(=O)(=O)c1ccc(S(=O)(=O)NCc2ccncc2)cc1,active: 7.31 µM,–
COc1ccc(N=C2NN=C(c3c(C)[nH]c4ccccc34)CS2)cc1,"inconclusive [inhibitor, single point]",–
S=C(Nc1ccc(Cl)cc1)c1sc(N2CCCCC2)nc1N1CCOCC1,"inconclusive [inhibitor, single point]",–
Cc1cc(NC(=O)N(C)CCc2c(C)nn(C)c2C)ccc1Br,"inconclusive [inhibitor, single point]",–
COc1ccc(CNC(=O)/C=C/c2ccc(S(=O)(=O)NCc3ccco3)cc2)cc1OC,–,inconclusive: -31.6% [inhibitor]
CCN(CCNC(=O)Nc1ccc(Cl)cc1)c1ccccc1,"inconclusive [inhibitor, single point]",–
CCCN(CCC)CCCNC(=O)c1cc2cc3ccc(Cl)cc3nc2o1,"inconclusive [inhibitor, single point]",–
Cc1ccc(CN2CCN(CC(=O)NCc3ccc(Cl)cc3)C2=O)cc1,"inconclusive [inhibitor, single point]",–
COc1ccc(Cn2c(SCc3ccc(C(=O)NCc4cccs4)cc3)nc3cccnc32)cc1,"inconclusive [inhibitor, single point]",–
COc1ccc(-c2cc(-c3ccccc3)c(C#N)c(S(C)(=O)=O)n2)cc1,"inconclusive [inhibitor, single point]",–
CC1(C)O[C@H]2[C@@H](O1)[C@@H](C(=O)Nc1ccc(F)c(F)c1)O[C@@H]1OC(C)(C)O[C@@H]12,inactive,–
CCN(CC)CCn1c(NCc2cccc(OC)c2OC)nc2ccccc21,"inconclusive [inhibitor, single point]",–
COc1c2ccoc2c(OC(C)=O)c2oc(C)cc(=O)c12,inactive,–
COc1ccc(-n2ncc3c(SCC(=O)N4CCN(c5ccccc5OC)CC4)ncnc32)cc1,"inconclusive [inhibitor, single point]",–
O=c1[nH]c(=O)n(Cc2ccco2)c2c1C(C(F)(F)F)(C(F)(F)F)N=C(c1ccc(F)cc1)N2,active: 11.6 µM,–
C=CCn1c(COc2ccc(Cl)cc2)nnc1SCc1ccc(C#N)cc1,"inconclusive [inhibitor, single point]",–
O=C(NCC1CCCN1S(=O)(=O)c1ccccc1)c1cccc(Cl)c1 (configuration not stated),"inconclusive [inhibitor, single point]",–
CC(C)OCCCN(CC(O)c1ccccc1)CC(O)c1ccccc1 (configuration not stated),"inconclusive [inhibitor, single point]",–
O=[N+]([O-])c1ccc(-c2csc(N/N=C/c3cccnc3)n2)cc1,inactive,–
COc1ccccc1CN1C(=O)CN(C2CCCCCC2)C(=O)C1c1ccc(C)cc1 (configuration not stated),active: 16.4 µM,–
O=C(C1CCCN(S(=O)(=O)c2ccc(Br)s2)C1)N1CCN(c2ccccc2F)CC1 (configuration not stated),"inconclusive [inhibitor, single point]",–

Compound,Potency,"activity change, negative = growth inhibition"
C=CCn1c(SCc2ccc(C(=O)OC)cc2)nnc1-c1sc(N)nc1C,inactive,–
CCn1c(COc2ccc(C)cc2)nnc1SCC(=O)Nc1ccc(S(N)(=O)=O)cc1,"inconclusive [inhibitor, single point]",–
Fc1ccc(Nc2ncnc3onc(-c4ccc(Cl)cc4)c23)cc1Cl,"inconclusive [inhibitor, single point]",–
Cc1nc(CNC(=O)CC2C(=O)NCCN2Cc2cccc(Oc3ccccc3)c2)cs1 (configuration not stated),"inconclusive [inhibitor, single point]",–
[O-]/C(=C(\C(=S)Nc1cccc2ccccc12)[n+]1cccc(CO)c1)c1ccc(Cl)s1,inactive,–
COc1ccc(CNC(=O)C2CCN(S(=O)(=O)c3ccccc3)CC2)cc1,inactive,–
OCn1c2ccccc2c2ccccc21,"inconclusive [inhibitor, partial curve]",–
CC/C(=C(/c1ccccc1)c1ccc(OCC[N+](C)(C)C)cc1)c1ccccc1,"inconclusive [inhibitor, single point]",–
O=S(=O)(NCCCCCCc1ccccc1)c1cccc2c(Cl)cccc12,active: 21.1 µM,–
COc1ccc(C2=NOC(Cn3nc(-c4ccccc4)cc3C(=O)NCc3ccco3)C2)cc1 (configuration not stated),"inconclusive [inhibitor, single point]",–
CCN(C(=O)c1sc2nc3n(c(=O)c2c1C)CCCCC3)c1ccc(OC)cc1,"inconclusive [inhibitor, single point]",–
COc1ccc(C(=O)N2CCCCC2c2cc(C(=O)Nc3ccccc3)no2)cc1 (configuration not stated),"inconclusive [inhibitor, single point]",–
CCOC(=O)c1c(C)[nH]c(CCC(=O)NC(C)c2ccccc2)c1C (configuration not stated),"inconclusive [inhibitor, single point]",–
CCN(CC)CCCNc1sc(S(=O)(=O)c2ccccc2)nc1S(=O)(=O)c1ccc(Cl)cc1,"inconclusive [inhibitor, single point]",–
COc1ccc(C)cc1NC(=O)NC(C)c1c(-n2cccc2)sc(C)c1C (configuration not stated),"inconclusive [inhibitor, single point]",–
CC(C)=CCC[C@H](C)CC1Cc2[nH]c(=S)[nH]c(=O)c2C(c2ccc(Cl)cc2)O1 (some centres not stated),"inconclusive [inhibitor, single point]",–
COC(=O)c1ccc(OCC(=O)NC2CCCCCCC2)cc1,"inconclusive [inhibitor, single point]",–
C=CCn1c(=S)[nH]c2scc(-c3cccs3)c2c1=O,inactive,–
CCc1ccc(NC(=O)NCc2ccc3c(c2)OCO3)cc1,inactive,–
Cn1nnnc1SCCNCc1ccccc1OCc1ccccc1Cl,"inconclusive [inhibitor, partial curve, poor fit]",–
COc1cccc(CN2CCN(c3cccc(C(F)(F)F)c3)CC2)c1OC,"inconclusive [inhibitor, single point]",–

# Source: PubChem BioAssay AID686979 (National Center for Advancing Translational Sciences (NCATS), 2013)
